# Data reported in the supplement of paper PMC4166925.
# ± gives the standard deviation of the averaged measurements. In all, about 33,000 sequences were measured (“E-score (dimensionless, -0.5 to 0.5)”: median about -0.049, highest 2% from about 0.37 on). The list shows a part of the results.
# Test system: T1, PmTbr T-box DNA-binding domain (GST fusion)
# T1 sequence: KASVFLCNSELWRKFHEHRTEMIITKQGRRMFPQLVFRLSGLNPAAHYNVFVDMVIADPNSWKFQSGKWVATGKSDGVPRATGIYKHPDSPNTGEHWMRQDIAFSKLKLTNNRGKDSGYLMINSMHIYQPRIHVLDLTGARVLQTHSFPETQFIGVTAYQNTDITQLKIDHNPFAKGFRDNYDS
# Experiment: PBM E-score of 8-mer (E-score (dimensionless, -0.5 to 0.5)); Tbr is Tbrain of the sea star Patiria miniata (Pm) or the sea urchin Strongylocentrotus purpuratus (Sp); higher = stronger binding preference; most listed sequences are background and not binding sites
# Conditions: the construct has about 5 more residues each side
# How it was run: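 Each ungapped 8-mer received an enrichment E-score from the Universal PBM Analysis Suite, averaged over duplicate arrays. The proteins were Tbr T-box DNA-binding domains, covering the whole T-box plus about five flanking residues, fused to GST and expressed in BL21 E. coli at 20 °C before glutathione affinity purification. Universal Agilent oligonucleotide arrays were made double-stranded by primer extension and incubated with 200 nM protein in PBS (pH 7.5). The arrays were then scanned and quantified, and every 8-mer was scored from probe intensities.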
row,Sequence,PBM E-score of 8-mer
1,CGTGGTAC,-0.0769 ± 0.039
2,AAAAATGG,-0.212 ± 0.15
3,TCCATACA,-0.248 ± 0.0049
4,TATTTCCA,-0.134 ± 0.027
5,AGGAGAGC,-0.282 ± 0.056
6,CTATAGCA,-0.00492 ± 0.045
7,AAGCGTTG,0.196 ± 0.0021
8,CGGAGCCC,-0.276 ± 0.086
9,AGAAGACA,0.0278 ± 0.0013
10,ATACAGTA,-0.14 ± 0.067
11,CCGGGCAG,-0.0095 ± 0.03
12,CAGCCGCG,-0.0288 ± 0.076
13,AGACATAC,-0.0914 ± 0.01
14,AGAGGCAT,-0.313 ± 0.018
15,CCAGCAAC,0.141 ± 0.0096
16,CGGATTTA,-0.0413 ± 0.027
17,AGCGTCCG,-0.0687 ± 0.02
18,AGTGTGAA,0.48836 ± 0.00035
19,GAATGTTA,-0.0965 ± 0.064
20,AAAGAGAC,-0.0189 ± 0.0068
21,ATGCATCG,-0.207 ± 0.081
22,ACGGCGAC,-0.00352 ± 0.027
23,AATTTAGG,-0.196 ± 0.066
24,AAGCATAA,-0.129 ± 0.019
25,ACTCCGGC,0.0353 ± 0.087

row,Sequence,PBM E-score of 8-mer
1,GATGCTAA,0.0342 ± 0.0048
2,ATCGTAGC,-0.0594 ± 0.0091
3,GACAACTA,0.11 ± 0.0063
4,ACGAGCCT,-0.163 ± 0.091
5,CTACCCTC,0.0124 ± 0.021
6,ACCAGCAA,0.0382 ± 0.0024
7,AGCTAGAC,-0.0397 ± 0.12
8,CGTAGGCC,-0.213 ± 0.033
9,GCCCTCGA,-0.187 ± 0.008
10,AGCGTATC,-0.202 ± 0.078
11,GATTGGCA,0.103 ± 0.051
12,TCAATCCA,-0.0657 ± 0.0029
13,GCACCCAA,0.193 ± 0.016
14,ATGGGTTG,-0.0958 ± 0.096
15,CTAAGCAG,-0.0891 ± 0.046
16,GTCATGTA,-0.1 ± 0.016
17,GCGATCAA,0.0305 ± 0.063
18,ATGAGATA,0.0769 ± 0.017
19,CCGGTCCG,-0.305 ± 0.046
20,CCCGTCTC,-0.214 ± 0.044
21,TCCGAGGA,-0.288 ± 0.022
22,GGACTTAC,-0.069 ± 0.0061
23,AGGTCTAA,-0.177 ± 0.013
24,ACATGCCC,-0.167 ± 0.0097
25,ACAATCGC,0.117 ± 0.028

row,Sequence,PBM E-score of 8-mer
1,CCCGTAGA,-0.301 ± 0.096
2,ACCACGGT,0.0773 ± 0.036
3,CAAGTCCG,-0.0558 ± 0.036
4,AAATATGT,0.0537 ± 0.055
5,AAAATACT,0.0413 ± 0.0038
6,ATATTCAG,-0.174 ± 0.0075
7,CCCACCAG,-0.0593 ± 0.024
8,ATGAGTCA,-0.0747 ± 0.0029
9,AATCAGGG,-0.154 ± 0.011
10,ACGGGACG,-0.144 ± 0.026
11,GTCAGCGA,0.00654 ± 0.068
12,ATGAATTG,-0.0244 ± 0.035
13,GCACCCCA,0.242 ± 0.0042
14,TGTGAACA,0.4216 ± 0.0014
15,CATCGTAC,-0.215 ± 0.015
16,GTCGACAC,0.406 ± 0.013
17,TACGTAAA,-0.0722 ± 0.0095
18,GTGTTGGA,0.382 ± 0.0051
19,CACCTTAA,0.385 ± 0.011
20,CGGGTCAA,-0.062 ± 0.0025
21,CCAGCCCC,-0.243 ± 0.069
22,TGGTCAAA,-0.17 ± 0.067
23,AATTATGG,-0.0713 ± 0.041
24,CAATAGAC,-0.0365 ± 0.053
25,ATCCCTAC,-0.128 ± 0.0015

row,Sequence,PBM E-score of 8-mer
1,GAGAGGGA,-0.204 ± 0.02
2,AGGCCAAT,-0.158 ± 0.081
3,CCGTTAGG,-0.106 ± 0.029
4,AGCTAACA,0.209 ± 0.033
5,ACATCCCA,0.0661 ± 0.083
6,GACGCCCA,-0.014 ± 0.024
7,AACTAAGG,-0.119 ± 0.028
8,GGCTTTGA,-0.234 ± 0.011
9,CGACCCTC,-0.0904 ± 0.069
10,AAGGCGTG,0.351 ± 0.019
11,GAGAAGCA,-0.244 ± 0.015
12,CTAATAAA,-0.154 ± 0.045
13,AGGCGAAC,-0.0499 ± 0.044
14,CAAGCTAG,-0.172 ± 0.039
15,CGCGACGA,0.249 ± 0.052
16,AGGTCGCC,-0.0269 ± 0.014
17,AGAGTAGA,-0.24 ± 0.0091
18,CAAACACA,0.088 ± 0.05
19,CACGTTCC,0.17 ± 0.042
20,ATGAAGCG,-0.0388 ± 0.0032
21,ACCGGTTC,-0.117 ± 0.034
22,CATCTAGC,0.055 ± 0.0032
23,TGGGTCAA,-0.264 ± 0.049
24,CTTTATTA,-0.182 ± 0.014
25,CATCCGCA,-0.0741 ± 0.05

row,Sequence,PBM E-score of 8-mer
1,CGACGACG,0.196 ± 0.047
2,AAACTTAT,-0.179 ± 0.023
3,AGGCAAGA,-0.165 ± 0.023
4,ATCTCTTC,-0.152 ± 0.033
5,ACTCGCGC,0.29 ± 0.014
6,CGAAAATA,0.0936 ± 0.022
7,GAGAGTTA,-0.0418 ± 0.051
8,AGATCAGC,0.107 ± 0.02
9,CCATTACC,-0.147 ± 0.0032
10,AATTTATG,0.0198 ± 0.017
11,CACGGCCG,0.13 ± 0.0079
12,GATTTTGA,-0.0701 ± 0.045
13,CATACGCA,0.0622 ± 0.012
14,AGGACGAC,-0.255 ± 0.091
15,GTTGATGA,-0.084 ± 0.033
16,ACTCATGA,-0.00258 ± 0.012
17,TATATAAA,-0.0861 ± 0.033
18,ACCTCACC,0.261 ± 0.028
19,CATTCTCA,0.142 ± 0.014
20,CCAATGGG,-0.235 ± 0.029
21,TATAATAA,-0.161 ± 0.11
22,AGACCTTA,-0.154 ± 0.0075
23,TTTCCAAA,-0.253 ± 0.022
24,AGATTACG,-0.0578 ± 0.022
25,ATCTATCG,-0.0094 ± 0.013

row,Sequence,PBM E-score of 8-mer
1,ATTTTCTG,-0.125 ± 0.02
2,AAGCCCCA,-0.164 ± 0.057
3,ACGGAGCT,0.0338 ± 0.019
4,AGCAAGTC,-0.00782 ± 0.031
5,ATAACTGC,-0.0529 ± 0.073
6,AACAGTAG,-0.0322 ± 0.0034
7,CGCCCCTA,-0.067 ± 0.015
8,CGGACTGA,-0.285 ± 0.0044
9,GTAACACA,0.3374 ± 0.0018
10,CGTACTGA,-0.105 ± 0.017
11,CAAGAGAA,-0.0649 ± 0.039
12,ACGACGTC,0.00952 ± 0.05
13,GGACTAAA,-0.0761 ± 0.065
14,CGATCGGC,-0.00361 ± 0.054
15,AAAGTCGC,0.157 ± 0.034
16,AATCAGAG,-0.286 ± 0.021
17,ATGGGCAG,-0.0292 ± 0.0055
18,CCCGAAGA,-0.207 ± 0.039
19,CCAAACGA,0.0753 ± 0.089
20,GCGAGAAC,0.375 ± 0.01
21,TACGGCCA,-0.108 ± 0.0061
22,AGTCGACC,-0.125 ± 0.038
23,GCATCCGA,-0.115 ± 0.02
24,GCCCCGCA,0.004 ± 0.014
25,CGGCTTTA,-0.00848 ± 0.029

row,Sequence,PBM E-score of 8-mer
1,ACAGCACA,0.0896 ± 0.0015
2,AACTAACG,0.178 ± 0.017
3,ACCTGTCT,0.112 ± 0.039
4,ACTTAGCT,-0.0647 ± 0.055
5,ATCTGTAA,-0.0802 ± 0.019
6,CAATTGAG,-0.258 ± 0.02
7,CTGCTTGC,-0.132 ± 0.025
8,GCCTAGGA,-0.156 ± 0.035
9,ACACCCCG,0.397 ± 0.029
10,GCTAAGTA,-0.107 ± 0.0026
11,CCTTTGCA,0.0305 ± 0.03
12,AGCGGCCT,0.0841 ± 0.041
13,AGCTGACA,0.27 ± 0.0082
14,CCGTATTC,0.0483 ± 0.06
15,ACGCTCGA,-0.154 ± 0.03
16,GCTGCGCA,-0.00302 ± 0.042
17,AGTTGTAG,-0.105 ± 0.031
18,ACAAGGGA,-0.117 ± 0.072
19,AGTAAGAG,-0.135 ± 0.055
20,TAAACTGA,-0.0928 ± 0.015
21,CACACCGC,0.334 ± 0.027
22,AACATAGG,-0.0922 ± 0.013
